Test results: paper PMC12040169 (PLOS Biology, 2025)
The list shows a part of the results.

tested on: T1, C. trachomatis L2/434/Bu expressing GFP (CTL2-GFP); parameters: species or system HeLa; C. trachomatis total inclusion area by high-content imaging, normalised to DMSO; details: total inclusion area; 28.5 h, 10 µM; inhibitor
T1 construct: L2/434/Bu GFP intracellular growth in HeLa cells
Method in brief: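 Post-fluorescence-read fixation, DNA staining with Hoechst and high-content imaging; GFP inclusion area and number per well, and nuclei counts, used as proxies for bacterial growth and host viability.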

First: Cn1c(/N=C(\C=N\c2cc(=O)n(C)c(=O)n2C)c2ccccc2)cc(=O)n(C)c1=O [CBK303237]
Second: O=C(NCc1ccccc1F)c1cccc(CN2C(=O)CSC2=O)c1 [CBK296730]
The “% of control remaining” value of the first is lower: 79.4271 for the first, 90.5441 for the second.

First: CCc1csc(C(=Cc2ccc(OC)cc2)C(N)=O)n1 [CBK001010]
Second: CCNC(=O)Nc1nn(Cc2ccc(OC)cc2)c2ccccc12 [CBK105837]
The “% of control remaining” value of the first is lower: 98.4453 for the first, 107.977 for the second.

First: Brc1ccccc1OCCc1ccccc1 [CBK004519]
Second: O=C(NCCc1ccccc1)c1ncoc1-c1cccs1 [CBK283662]
The “% of control remaining” value of the first is higher: 65.4275 for the first, 56.8871 for the second.

Going from CCCCC(=O)N1CC(n2nc(-c3ccccc3)ccc2=O)C1 [CBK284615] to CCCC/C=C/c1cnc2[nH]c(=O)n([C@H](C)c3ccccc3)c2n1 [CBK064182], the “% of control remaining” value falls from 137.119 to 108.041.

Going from CCN1CCC2(C/C=C/CNC(=O)c3ccccc3OCCN(C)C2=O)CC1 [CBK292061] to Cn1nccc1C(=O)NC1CCN(CC2(c3ccccc3)CC2)CC1 [CBK285373], the “% of control remaining” value rises from 87.7409 to 89.8412.

Going from O=C(O)CC1CCN(c2ccc(C(F)(F)F)cn2)CC1 [CBK286850] to CC1CCC(C(N)=O)CN1C(=O)c1csc(COc2ccc(Cl)cc2)n1 (stereo not drawn) [CBK304948], the “% of control remaining” value falls from 86.3232 to 50.4055.

Going from CCc1ccc(-c2csc(NC(=O)CN3C(=O)CCC3=O)n2)cc1 [CBK287347] to O=C(CN1C(=O)COc2ccc(Cl)cc21)Nc1cccc(C(=O)O)c1 [CBK269667], the “% of control remaining” value falls from 120.55 to 90.4585.

Compared with CC(=O)Nc1ccc(CN2C[C@@H]3OCC(=O)N(C)[C@@H]3C2)cc1 [CBK289240], CC(=O)Nc1ccc(S(=O)(=O)N2CCN(Cc3ccc([N+](=O)[O-])cc3)CC2)cc1 [CBK264231G] is higher in “% of control remaining” value: 109.447 for the first, 111.81 for the second.

First: CC(C)(C)NS(=O)(=O)c1cccc2nonc12 [CBK265569]
Second: COc1ccc(C(=O)NNS(=O)(=O)N(C)C)cc1OC [CBK267697]
The “% of control remaining” value of the first is lower: 107.136 for the first, 115.722 for the second.

Going from COc1ccc(C2C(C(=O)c3ccc(Cl)cc3)=C(O)C(=O)N2CCN(C)C)cc1OC (stereo not drawn) [CBK264660] to CCN(CC)CCNC(=O)c1ccc(Nc2cncc(-c3ccc(O)cc3)n2)c(OC)c1 [CBK122659], the “% of control remaining” value falls from 116.08 to 32.943.

Going from COc1ccccc1CN(C)C(=O)CCc1ccc(S(N)(=O)=O)cc1 [CBK304585] to CS(=O)(=O)N(CC(=O)NCc1ccccn1)Cc1ccc(Cl)cc1 [CBK267982], the “% of control remaining” value rises from 64.0577 to 96.0616.

Compared with Clc1ccccc1-c1cn2ccnc2c(NCc2cccnc2)n1 [CBK038039], O=C1NC2(CCC(=O)N(Cc3ccccc3)CC2)Nc2ccccc21 (stereo not drawn) [CBK284439] is lower in “% of control remaining” value: 93.7046 for the first, 54.5992 for the second.

Compared with COc1ccc(S(=O)(=O)Nc2ccc(C)cc2)cc1C(=O)Nc1ccc(C)cc1 [CBK265172], NS(=O)(=O)c1ccc(NS(=O)(=O)c2ccc(NC(=O)C3CC3)cc2)cc1 [CBK264958] is lower in “% of control remaining” value: 96.3668 for the first, 78.7191 for the second.

Going from CS(=O)(=O)Nc1cccc(C2=NN(S(=O)(=O)c3ccc(Cl)cc3)C(c3ccccc3F)C2)c1 (stereo not drawn) [CBK268762] to O=C1CC(N(O)c2ccccc2)C(=O)N1c1ccc(F)cc1 (stereo not drawn) [CBK288419], the “% of control remaining” value rises from 85.3538 to 89.8846.

Compared with COc1ccc(/C=C/C(C)=C\C(=O)O)c(OC)c1 [CBK262237N], COc1cc(Nc2cccc3c2C(=O)c2ccccc2C3=O)c(OC)cc1C=O [CBK262677] is higher in “% of control remaining” value: 80.091 for the first, 106.232 for the second.

First: COc1ccc(C(C)C)cc1S(=O)(=O)NCCc1c(C)[nH]c2c(Cl)cccc12 [CBK266983]
Second: Cc1ccc(C)c2c(C)c(C(=O)NCC[S+](C)[O-])[nH]c12 (stereo not drawn) [CBK282484]
The “% of control remaining” value of the first is lower: 83.9316 for the first, 123.993 for the second.

Compared with COc1ccc(CCNCC2OCCCc3cc(OC)c(OC)cc32)cc1OC (stereo not drawn) [CBK012466C], O=c1c2sccc2nc2n1CCN(Cc1ccc(F)c(F)c1)CC2 [CBK282295] is higher in “% of control remaining” value: 74.533 for the first, 92.008 for the second.

Going from O=C(NNC(=S)NCC1CCCO1)c1cccnc1 (stereo not drawn) [CBK266842] to Cc1cccnc1C(c1ccccc1)N(C)C(=O)C1CCN(C(=O)NCc2ccccc2)CC1 (stereo not drawn) [CBK074119], the “% of control remaining” value falls from 101.741 to 88.7208.

First: COc1ccc(N(C)C(=O)c2ccc(Cn3nc(NC(=O)Cc4ccc5c(c4)OCO5)c4ccccc43)cc2)cc1 [CBK059530]
Second: C/C(=N\OCC(=O)N(Cc1ccccc1)c1ccccc1C(=O)O)c1cccs1 [CBK077414]
The “% of control remaining” value of the first is higher: 108.675 for the first, 91.1227 for the second.

Compared with CCOc1ccc(Cc2nnnn2CC(=O)O)cc1 [CBK286677], CNCC1CCCN1S(=O)(=O)c1ccc(OCc2ncnn2C)cc1 (stereo not drawn) [CBK304500] is lower in “% of control remaining” value: 108.958 for the first, 59.6494 for the second.

First: O=C(O)CCC(=O)NNc1ccccc1[N+](=O)[O-] [CBK261546]
Second: CCCN(CCC)C(=O)c1ccc(NC(=O)CC)cc1 [CBK304391]
The “% of control remaining” value of the first is higher: 102.465 for the first, 13.6617 for the second.

Compared with CCOCCn1c(CN2CCOCC2)nc2c1c(=O)n(C)c(=O)n2C [CBK306062], Cn1c(=O)c2c(nc(N3CCOCC3)n2CC/N=C2/CCCCCN2)n(C)c1=O [CBK267708C] is higher in “% of control remaining” value: 60.3486 for the first, 106.148 for the second.

Going from CCc1nc2c(OCC(=O)c3ccc(Cl)cc3Cl)cccn2c1N(C)C(=O)C1CC1 [CBK147712] to Cc1cc(Cl)ccc1CNC(=O)c1ccc2[nH]ccc2c1 [CBK149048], the “% of control remaining” value falls from 97.1406 to 96.5349.

Compared with CN1CCN(Cc2c(O)ccc3c(=O)c(-c4ccc(Cl)cc4)coc23)CC1 [CBK263314], CC(=O)N1CCN(CCCC(c2ccc(F)cc2)c2ccc(F)cc2)CC1 [CBK024944C] is lower in “% of control remaining” value: 92.1121 for the first, 6.561 for the second.

Compared with CN1[C@@H](CCC(=O)NCc2ccc(F)cc2)CNC(=O)[C@@H]2[C@H]1CCN2C1CCOCC1 [CBK289023], N#Cc1c(Nc2cccc(F)c2)sc2c(O)cc(=O)[nH]c12 [CBK270250] is higher in “% of control remaining” value: 101.601 for the first, 104.815 for the second.

Nc1ncncc1-c1ccc(Cl)cc1 [CBK012407] was tested, and the “% of control remaining” value was 99.9632.
